Measured values as given in the supplement of paper PMC8728848.
Some of the results follow.

Assays:
Assay in all cases: glycan array binding signal (z-score within array); higher = stronger binding
Details in all cases: glycan notation: IUPAC condensed, linker removed
Fuc(a1-2)Gal = molecular target: Fuc(a1-2)Gal
In short: (§1)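 Columns mapping to the same glycan were averaged after glycan names were converted to IUPAC-condensed notation. The data come from 3228 arrays in the Consortium for Functional Glycomics database, limited to those with an available protein sequence. Binding is reported as a within-array Z-score averaged across arrays of one protein sequence and across linkers.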

Fuc(a1-2)Gal(b1-3)GalNAc = molecular target: Fuc(a1-2)Gal(b1-3)GalNAc
In short: as §1

[1] = molecular target: Fuc(a1-2)Gal(b1-3)GalNAc(a1-3)[Fuc(a1-2)]Gal(b1-4)Glc
In short: as §1

[2] = molecular target: Fuc(a1-2)Gal(b1-3)GalNAc(a1-3)[Fuc(a1-2)]Gal(b1-4)GlcNAc
In short: as §1

[3] = molecular target: Fuc(a1-2)Gal(b1-3)GalNAc(b1-3)Gal
In short: as §1

[4] = molecular target: Fuc(a1-2)Gal(b1-3)GalNAc(b1-3)Gal(a1-4)Gal(b1-4)Glc
In short: as §1

[5] = molecular target: Fuc(a1-2)Gal(b1-3)GalNAc(b1-4)[Neu5Ac(a2-3)]Gal(b1-4)Glc
In short: as §1

Fuc(a1-2)Gal(b1-3)GlcNAc = molecular target: Fuc(a1-2)Gal(b1-3)GlcNAc
In short: as §1

[6] = molecular target: Fuc(a1-2)Gal(b1-3)GlcNAc(b1-2)Man(a1-3)[Fuc(a1-2)Gal(b1-3)GlcNAc(b1-2)Man(a1-6)]Man(b1-4)GlcNAc(b1-4)GlcNAc
In short: as §1

[7] = molecular target: Fuc(a1-2)Gal(b1-3)GlcNAc(b1-2)Man(a1-3)[Fuc(a1-2)Gal(b1-3)GlcNAc(b1-2)Man(a1-6)]Man(b1-4)GlcNAc(b1-4)[Fuc(a1-6)]GlcNAc
In short: as §1

[8] = molecular target: Fuc(a1-2)Gal(b1-3)GlcNAc(b1-3)Gal(b1-4)Glc
In short: as §1

[9] = molecular target: Fuc(a1-2)Gal(b1-3)GlcNAc(b1-3)GalNAc
In short: as §1

[10] = molecular target: Fuc(a1-2)Gal(b1-3)GlcNAc(b1-3)[Fuc(a1-2)Gal(b1-3)GlcNAc(b1-6)]GalNAc
In short: as §1

[11] = molecular target: Fuc(a1-2)Gal(b1-3)GlcNAc(b1-3)[Gal(b1-4)GlcNAc(b1-6)]Gal(b1-4)Glc
In short: as §1

[12] = molecular target: Fuc(a1-2)Gal(b1-3)GlcNAc(b1-3)[Neu5Ac(a2-6)Gal(b1-4)GlcNAc(b1-6)]Gal(b1-4)Glc
In short: as §1

[13] = molecular target: Fuc(a1-2)Gal(b1-3)GlcNAc6S
In short: as §1

[14] = molecular target: Fuc(a1-2)Gal(b1-3)[Fuc(a1-4)]GlcNAc
In short: as §1

[15] = molecular target: Fuc(a1-2)Gal(b1-3)[Fuc(a1-4)]GlcNAc(b1-2)Man(a1-3)[Fuc(a1-2)Gal(b1-3)[Fuc(a1-4)]GlcNAc(b1-2)Man(a1-3)]Man(b1-4)GlcNAc(b1-4)GlcNAc
In short: as §1

[16] = molecular target: Fuc(a1-2)Gal(b1-3)[Fuc(a1-4)]GlcNAc(b1-2)Man(a1-3)[Fuc(a1-2)Gal(b1-3)[Fuc(a1-4)]GlcNAc(b1-2)Man(a1-6)]Man(b1-4)GlcNAc(b1-4)[Fuc(a1-6)]GlcNAc(b1-4)[Fuc(a1-6)]GlcNAc
In short: as §1

[17] = molecular target: Fuc(a1-2)Gal(b1-3)[Fuc(a1-4)]GlcNAc(b1-3)[Fuc(a1-3)[Gal(b1-4)]GlcNAc(b1-6)]Gal(b1-4)Glc
In short: as §1

[18] = molecular target: Fuc(a1-2)Gal(b1-3)[Fuc(a1-4)]GlcNAc(b1-3)[Gal(b1-4)GlcNAc(b1-6)]Gal(b1-4)Glc
In short: as §1

Fuc(a1-2)Gal(b1-4)Glc = molecular target: Fuc(a1-2)Gal(b1-4)Glc
In short: as §1

Fuc(a1-2)Gal(b1-4)Glc6S = molecular target: Fuc(a1-2)Gal(b1-4)Glc6S
In short: as §1

Fuc(a1-2)Gal(b1-4)GlcNAc = molecular target: Fuc(a1-2)Gal(b1-4)GlcNAc
In short: as §1

[19] = molecular target: Fuc(a1-2)Gal(b1-4)GlcNAc(b1-2)Man
In short: as §1

[20] = molecular target: Fuc(a1-2)Gal(b1-4)GlcNAc(b1-2)Man(a1-3)[Fuc(a1-2)Gal(b1-4)GlcNAc(b1-2)Man(a1-6)]Man(b1-4)GlcNAc(b1-4)GlcNAc
In short: as §1

[21] = molecular target: Fuc(a1-2)Gal(b1-4)GlcNAc(b1-2)Man(a1-3)[Fuc(a1-2)Gal(b1-4)GlcNAc(b1-2)Man(a1-6)]Man(b1-4)GlcNAc(b1-4)[Fuc(a1-6)]GlcNAc
In short: as §1

[22] = molecular target: Fuc(a1-2)Gal(b1-4)GlcNAc(b1-2)[Fuc(a1-2)Gal(b1-4)GlcNAc(b1-4)]Man(a1-3)[Fuc(a1-2)Gal(b1-4)GlcNAc(b1-2)Man(a1-6)]Man(b1-4)GlcNAc(b1-4)GlcNAc
In short: as §1

[23] = molecular target: Fuc(a1-2)Gal(b1-4)GlcNAc(b1-3)Gal(b1-4)GlcNAc
In short: as §1

[24] = molecular target: Fuc(a1-2)Gal(b1-4)GlcNAc(b1-3)Gal(b1-4)GlcNAc(b1-2)Man(a1-3)[Fuc(a1-2)Gal(b1-4)GlcNAc(b1-3)Gal(b1-4)GlcNAc(b1-2)Man(a1-6)]Man(b1-4)GlcNAc(b1-4)GlcNAc
In short: as §1

B1: PX9961T-pdi-555-33-555 (Parabacteroides distasonis) (protein)
chain: FDEETAFQSPTLVYVNTVASLYNNMFKIMGNDRHVYDLNTFSSDEAMLPCRIGDWEDGGLWQNIFLHRWGTMNDLTKNSWDFLYEQIGKCNQSVDKLQAFAEEQPDVEYFKVYLEEVRAVRAFFYYELLDLFARVPLVTSSTTPMSEVKQSERSVVFNFVRSELEEALPYLSDNRSNQKGEYYGRITKPVAYMILAKLALNAEVYADDNWTDGNRPAGKNIKFTVDGKEMNAWEATIAYVDKLEALGYKLQGNFSENFAVANETSVENIFTVPMDPVAYPDAKDYNLVRTRHYDHATAYGQSGWNGSCATVKAMNVFKFGTADEDPRCKLTYFTGEVTGPDGKTIYTEWDGQKVPLKYEPNAPKVYMDASDGLLVKTAGARMAKYEFDQNAQDGGNLHGNDCVIFRFADALLMKAEAKIRLGQNGDDEVNQVRNRVGAKPLQNVTLDTLLDERMLELAWEGVRRQDLIRFGKFTEATVDRYVGVKHFASSLDYQEDKTGYTTVFSIYADILSLNPNLTQNPGY
glycan array binding signal (z-score) (Fuc(a1-2)Gal): -0.668 | glycan array binding signal (z-score) (Fuc(a1-2)Gal(b1-3)GalNAc): 0.291 | glycan array binding signal (z-score) [1]: -0.139 | glycan array binding signal (z-score) [2]: 0.191 | glycan array binding signal (z-score) [3]: -0.475 | glycan array binding signal (z-score) [4]: -0.258 | glycan array binding signal (z-score) [5]: 0.436 | glycan array binding signal (z-score) (Fuc(a1-2)Gal(b1-3)GlcNAc): 0.033 | glycan array binding signal (z-score) [6]: -0.549 | glycan array binding signal (z-score) [7]: 0.178 | glycan array binding signal (z-score) [8]: -0.312 | glycan array binding signal (z-score) [9]: 0.217 | glycan array binding signal (z-score) [10]: -0.068 | glycan array binding signal (z-score) [11]: -0.271 | glycan array binding signal (z-score) [12]: -0.731 | glycan array binding signal (z-score) [13]: 0.963 | glycan array binding signal (z-score) [14]: -0.23 | glycan array binding signal (z-score) [15]: 0.476 | glycan array binding signal (z-score) [16]: 0.165 | glycan array binding signal (z-score) [17]: 0.077 | glycan array binding signal (z-score) [18]: 0.563 | glycan array binding signal (z-score) (Fuc(a1-2)Gal(b1-4)Glc): 0.293 | glycan array binding signal (z-score) (Fuc(a1-2)Gal(b1-4)Glc6S): -0.659 | glycan array binding signal (z-score) (Fuc(a1-2)Gal(b1-4)GlcNAc): 0.043 | glycan array binding signal (z-score) [19]: -0.007 | glycan array binding signal (z-score) [20]: 1.91 | glycan array binding signal (z-score) [21]: 0.812 | glycan array binding signal (z-score) [22]: 0.759 | glycan array binding signal (z-score) [23]: -0.156 | glycan array binding signal (z-score) [24]: 0.962
